This is one part of the list. The main result of the screen is listed elsewhere. These columns were measured beside it and carry no call.
Assays:
Assay in all cases: Primary Screen for Target Class Profiling of Small Molecule Inhibitors of Methyltransferases
[1] = target: Glycine N-methyltransferase (Homo sapiens) (UniProt Q14749); conditions: purified enzyme, MTase-Glo SAH luminescence; measured here: GNMT inhibition; at 40 µM; stronger effect = lower value
Outline: (§1)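 Each enzyme was reacted with SAM and its substrate, with compounds tested once at 40 uM; SAH formed was read by MTase-Glo luminescence.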

[2] = target: Guanidinoacetate N-methyltransferase (Homo sapiens) (UniProt Q14353); conditions: purified enzyme, MTase-Glo SAH luminescence; measured here: GAMT inhibition; at 40 µM; stronger effect = lower value
Outline: as §1

[3] = target: Histamine N-methyltransferase (Homo sapiens) (UniProt P50135); conditions: purified enzyme, MTase-Glo SAH luminescence; measured here: HNMT inhibition; at 40 µM; stronger effect = lower value
Outline: as §1

[4] = target: Nicotinamide N-methyltransferase (Homo sapiens) (UniProt P40261); conditions: purified enzyme, MTase-Glo SAH luminescence; measured here: NNMT inhibition; at 40 µM; stronger effect = lower value
Outline: as §1

[5] = target: Phenylethanolamine N-methyltransferase (Homo sapiens) (UniProt P11086); conditions: purified enzyme, MTase-Glo SAH luminescence; measured here: PNMT inhibition; at 40 µM; stronger effect = lower value
Outline: as §1
On the % scale 0 is the no-effect control and ±100 the full control effect.

SMILES	activity change, negative = inhibition [1] [%]	activity change, negative = inhibition [2] [%]	activity change, negative = inhibition [3] [%]	activity change, negative = inhibition [4] [%]	activity change, negative = inhibition [5] [%]
C=CC(=O)Nc1ccc(CN2C(=O)N(c3cc(OC)cc(OC)c3)Cc3cnc(Nc4ccc(N5CCN(C)CC5)cc4)nc32)cc1	-6.25	0.886	-55.3	-6.07	2.36
COc1ccccc1CNC(=O)C1(C)Cn2cnc(C(=O)N3CCCC3)c2C(=O)N1C1CC1 (configuration not stated)	2.73	0	9.38	8.24	6.18
O=C(c1csc(Cc2ccccc2)n1)N1CCC2(CCCNC2)C1 (configuration not stated)	-2.4	0.637	-2.85	-3.34	-3.79
O=C(CCc1nnc2ccc(-c3ccc(Cl)cc3)nn12)N1CCC(Cc2ccccc2)CC1	-17.7	4.34	-8.06	-15.6	-9.01
CC(C)NC(=O)N[C@H]1CCN(C(=O)c2cnccn2)[C@@H]1C(=O)N[C@@H](CCCNC(=O)c1cnccn1)C(N)=O	-1.62	-4.91	-1.35	-9.86	-3.28
NC(=O)[C@H](Cc1cccs1)NC(=O)[C@@H]1C[C@@H](NC(=O)c2cnccn2)CCN1C(=O)COCC(=O)O	-0.417	-2.26	-0.918	-1.8	0.791
CCOc1ccc(C(=O)Cn2nc3n(C(C)C)c(=O)c4ccc(C(=O)NC5CCCC5)cc4n3c2=O)cc1	5.57	0	11.4	7.57	7
CC(=O)Nc1c2n(c3ccc(F)cc13)CC(C)(C(=O)NCCC(C)C)N(C1CCCC1)C2=O (configuration not stated)	2.22	0.901	3.73	4.54	-1.71
CC(O)(C(=O)O)C1CCC2(C)C1CCC1(C)C2CCC2C3(C)CCC(O)C(C)(COC4OC(CO)C(O)C(O)C4O)C3CCC21C (configuration not stated)	-1.56	-14.7	4.38	-25	-5.13
Cc1ccc(C)c(-c2cc(C(F)(F)F)nn2-c2ccc(S(N)(=O)=O)cc2)c1	-8.83	-9.23	-16.8	-61.9	-7.05
CSCC(=O)N1CC[C@H](NC(=O)Nc2cccc(SC)c2)[C@H]1C(=O)N[C@H](Cc1ccccc1)C(N)=O	-2.87	-5.05	-0.662	-7.51	-3.08
CCOc1ccc(CNS(=O)(=O)c2ccc3[nH]c4c(c3c2)CCCC4)cc1OC	-0.365	0	-4.23	-2.89	-5.59
COCCNC(=S)N[C@H]1C[C@H]2C(=O)NC[C@@H](CCC(=O)NCc3ccccc3)N2C1	-8.09	-6.66	-5.95	-7.2	-4.81
Cn1cc(-c2ccncc2)c(-c2ccc(OCc3ccc4ccccc4n3)cc2)n1	-27.8	-10.8	-13.8	-48.4	-13.2
CN(CCc1ccccn1)[C@@H]1[C@H](O)[C@H](CO)O[C@@H]1CNC(=O)c1ccc(C(F)(F)F)cc1	-4.41	-7.61	-6.59	-5.8	-3.79
COC(=O)c1ccc(C2Nc3c(C)cc(C)cc3C3C=CCC32)cc1 (configuration not stated)	-9.42	-5.27	-10.4	-20.7	-13.6
C=CCNC(=O)N[C@H]1[C@H](O)[C@@H](N2CCC(Cc3ccccc3)CC2)[C@@H]2OC[C@H]1O2	-3.79	-4.87	-4.75	-9.09	-5.93
CN1[C@@H]2CC[C@H]1CC(OC(c1ccccc1)c1ccccc1)C2 (some centres not stated)	6.92	9	-27.8	-14.4	5.83
CCN1CCC(n2cc(CNc3cc(Cl)c4ncc(C#N)c(Nc5ccc(F)c(Cl)c5)c4c3)nn2)CC1	-87.6	-86.3	-93.9	-93.1	-94.6
CC(C)CNC(=O)C1CC(c2ccccc2F)=NO1 (configuration not stated)	-0.807	0.772	1.88	-1.89	2.38

SMILES	activity change, negative = inhibition [1] [%]	activity change, negative = inhibition [2] [%]	activity change, negative = inhibition [3] [%]	activity change, negative = inhibition [4] [%]	activity change, negative = inhibition [5] [%]
Cc1ccc(NC(=O)N2C[C@@H](F)C[C@H]2C(=O)N2CCCCC2)cc1F	-5.39	-0.679	1.52	-4.72	-0.265
CCNC(=O)N1CCC(Cc2ccc(C(=O)O)cc2)CC1	-3.03	-0.183	1.04	-0.556	-5.08
CC(C)CN1CCN(C(=O)c2ccc3c(c2)N(S(C)(=O)=O)CC3)CC1	-0.906	-0.785	-7.07	-4.8	-0.477
CN(C)C[C@@H]1CN(c2ccncn2)C[C@H]1NC(=O)Cc1cccs1	-3.64	-3.07	0.124	-6.28	-10.2
O=C(O)c1ccc2c(c1)C1C=CCC1C(c1cccc(F)c1)N2 (configuration not stated)	-47.9	-7.81	-0.174	0.272	-17.8
CCCn1c(C)cnc1C1CCN(S(=O)(=O)c2cn(C)cn2)C1 (configuration not stated)	-0.563	1.5	0.311	-0.611	2.09
Cc1noc(-c2ccc(C(C)(C)C)cc2)c1C(=O)NCCOc1ccccc1	-8.66	-7	-3.46	-17.3	-8.18
O=C(/C=C/c1cccnc1)c1ccncc1	–	3.31	–	-17.3	-7.91
CCc1nc2c(=O)n(CC(=O)NC(C)c3ccc(F)cc3)nc(C)c2s1 (configuration not stated)	-2.86	-3.22	-1.2	-4.54	-5.44
CSc1cccc(NC(=O)N2CCn3cccc3C2C(C)C)c1 (configuration not stated)	1.6	0	-0.832	-6.25	0.971
Cn1cc(C2=C(c3c4n(c5ccccc35)CCC(CN)C4)C(=O)NC2=O)c2ccccc21 (configuration not stated)	-24.5	–	-10.5	-7.62	28.7
CC1(C)CCC(C)(C)c2cc(C#Cc3ccc(C(=O)O)cc3)ccc21	-35.7	1.73	-10.6	-61.3	-2.76
CC1CCC(NC(=O)C2(C)Cn3c(cc4occc43)C(=O)N2Cc2ccccc2Br)CC1 (configuration not stated)	-0.873	0	4.2	5.12	3.59
Cc1noc(C)c1C(=O)N1CCC2(CC1)C(=O)NCN2C(=O)Cc1ccccc1	-1.68	-4.04	-2.12	1.3	1.09
NC(Cc1c[nH]c2ccccc12)C(=O)O (configuration not stated)	-5.92	3.11	-5.38	-0.971	-3.64
Cc1ccc2nc(CN(C)C(=O)C3CCC(=O)N(C4CCCCCC4)C3)[nH]c2c1 (configuration not stated)	-3.66	-6.44	-1.42	-15.6	-50.4
c1ccc(-n2cncn2)c(Cn2ccnc2-c2cc3n(n2)CCCNC3)c1	-0.654	1.32	0.547	-0.561	1.3
CCC1c2ccc(C)n2CCN1C(=O)Nc1ccc(Br)cc1 (configuration not stated)	-1.86	-19.7	-1.06	-6.79	-6.37
O=c1[nH]c2ccc(S(=O)(=O)N3CCN(c4ccc(F)cc4)CC3)cc2[nH]1	11.9	2.83	12.2	-1.21	6.47
CCCCN1C(=O)c2cc(C(=O)N3CCN(c4ccccn4)CC3)nn2CC1(C)C(=O)NC1CCCC1 (configuration not stated)	1.51	3	1.17	-0.488	-0.646

SMILES	activity change, negative = inhibition [1] [%]	activity change, negative = inhibition [2] [%]	activity change, negative = inhibition [3] [%]	activity change, negative = inhibition [4] [%]	activity change, negative = inhibition [5] [%]
CCN1C(=O)c2cc(C(=O)Nc3ccc(F)cc3)nn2CC1(C)C(=O)NC1CCCC1 (configuration not stated)	0.215	-0.868	-5.48	1.51	0.603
COc1ccc(C)cc1NC(=O)Cn1c(=O)c2ccc(Cl)cc2n2nncc12	-1.45	0.254	7.75	-1.26	1.78
Cc1ccc(NC(=O)CCc2nnc3n(CC(C)C)c(=O)c4ccccc4n23)cc1C	5.08	0	7.45	-9.73	-4.03
CCCNC(=O)N1CC[C@@H]2[C@H]1C(=O)N(c1cccc(F)c1)C(=O)N2Cc1cccs1	-5.11	-10.6	-5.48	-9.4	-7.73
O=C(NC1CCCCC1)c1nc[nH]c1C(=O)NCCc1c[nH]c2ccccc12	-3.71	3.76	0.121	-13.2	-3.5
CCCC1c2cccn2CCN1C(=O)NCc1cccc(OC)c1 (configuration not stated)	-0.29	0	2.08	0.689	2.97
CC(=O)N1CCC(N[C@H]2C[C@@H](Cc3cc(CN(C)C)on3)C2(C)C)CC1	-5.45	-4.56	-3.12	-3.08	-2.26
COC(=O)[C@@H](C)NC(=O)[C@H]1CN(C(=O)c2cccnc2)CCN1S(=O)(=O)c1ccccc1	-4.71	-10.7	-5.4	-2.72	-4.5
C=Cc1ccc(CSc2nnc3n(CCC)c(=O)c4ccc(Cl)cc4n23)cc1	1.75	2.79	2.52	1.89	2.43
O=C(Cn1c(=O)oc2cc(S(=O)(=O)NCc3ccccc3)ccc21)NCc1ccco1	-5.44	5.32	1.45	5.66	-3.92
COCCCN1C(=O)c2cc(-c3ccc(OC)cc3)nn2CC1(C)C(=O)NCc1ccccc1OC (configuration not stated)	-5.54	0.558	-4.13	-6.9	-7.38
c1cncc(CN2CCC(n3ncc4c(N5CCOCC5)nc(-c5ccc6[nH]ccc6c5)nc43)CC2)c1	-39	16.7	-0.481	-5.21	6.99
O=C(Cn1c(=O)oc2cc(S(=O)(=O)N3CCCC3)ccc21)Nc1ccc(F)cc1	2.99	0.258	2.38	-1.94	-16
CC1(C(=O)NC2CCCCC2)Cn2nc(-c3ccco3)cc2C(=O)N1CCCc1ccccc1 (configuration not stated)	1.48	-1.81	3.67	0.364	-3.36
Cc1cccc(-c2noc([C@@H]3Cc4nc[nH]c4CN3C(=O)COCC(=O)O)n2)c1	-3.4	2.48	0.3	-3.5	4.42
COC1CCN(C(=O)c2cc(Cc3n[nH]c(=O)c4ccccc34)ccc2F)CC1	-3.15	-5.98	-6.68	-18.1	-13.7
CCN(Cc1nc(C)no1)C(=O)c1cc(COc2cccc(F)c2)[nH]n1	-1.43	1.47	-0.04	-0.729	12.6
COc1ccc(-c2cc3n(n2)CC(C)(C(=O)NCc2ccccc2)N(c2cccc(Cl)c2C)C3=O)cc1 (configuration not stated)	-1.24	4.34	-0.4	-0.995	-1.05
CC(C)Cn1c(=O)c2ccccc2n2c(CCC(=O)NCc3ccccc3Cl)nnc12	-4.57	0	9.38	7.89	-0.048
CCCN1C(=O)c2c(C(=O)NCCc3ccc(OC)c(OC)c3)ncn2CC1(C)C(=O)NC1CCCC1 (configuration not stated)	-4.33	4.69	2.73	0.396	4.01
